Experimental findings from the supplement of paper PMC11876631 are described below.

The labels stand for the following.
B1: serC L70P (protein)
chain: MAQIFNFSSGPAMLPAEVLKQAQQELRDWNGLGTSVMEVSHRGKEFIQVAEEAEKDFRDLLNVPSNYKVPFCHGGGRGQFAAVPLNILGDKTTADYVDAGYWAASAIKEAKKYCTPNVFDAKVTVDGLRAVKPMREWQLSDNAAYMHYCPNETIDGIAIDETPDFGADVVVAADFSSTILSRPIDVSRYGVIYAGAQKNIGPAGLTIVIVREDLLGKANIACPSILDYSILNDNGSMFNTPPTFAWYLSGLVFKWLKANGGVAEMDKINQQKAELLYGVIDNSDFYRNDVAKANRSRMNVPFQLADSALDKLFLEESFAAGLHALKGHRVVGGMRASIYNAMPLEGVKALTDFMVEFERRHG
B2: serC F71A (protein)
chain: B1 chain with P70L, F71A
B3: serC V208Q (protein)
chain: B1 chain with P70L, V208Q
B4: serC M354A (protein)
chain: B1 chain with P70L, M354A
B5: serC I192A (protein)
chain: B1 chain with P70L, I192A
B6: serC F71D (protein)
chain: B1 chain with P70L, F71D
B7: serC F71Q (protein)
chain: B1 chain with P70L, F71Q
B8: serC F71P (protein)
chain: B1 chain with P70L, F71P
B9: serC F71W (protein)
chain: B1 chain with P70L, F71W
B10: suhB I51A (protein)
chain: MHPMLNIAVRAARKAGNLIAKNYETPDAVEASQKGSNDFVTNVDKAAEAVAIDTIRKSYPQHTIITEESGELEGTDQDVQWVIDPLDGTTNFIKRLPHFAVSIAVRIKGRTEVAVVYDPMRNELFTATRGQGAQLNGYRLRGSTARDLDGTILATGFPFKAKQYATTYINIVGKLFNECADFRRTGSAALDLAYVAAGRVDGFFEIGLRPWDFAAGELLVREAGGIVSDFTGGHNYMLTGNIVAGNPRVVKAMLANMRDELSDALKR
B11: suhB V82P (protein)
chain: B10 chain with A51I, V82P
B12: suhB V82D (protein)
chain: B10 chain with A51I, V82D
B13: suhB I51W (protein)
chain: B10 chain with A51W
B14: suhB I51Q (protein)
chain: B10 chain with A51Q

Positions count from the first letter of the chain named. In names and notes the source's numbering stands. ± gives the standard deviation of the averaged measurements. Laboratory Escherichia coli strains with one amino-acid change in an essential protein, pooled on minimal glucose agar with carbenicillin or gentamicin at twice the control MIC (plus kanamycin and chloramphenicol for the plasmids), 48 h. Fold change of barcode share against drug-free plates; higher = less susceptible. Active = above 20 in both replicates (the paper's putatively resistant). '<' = one read or none on drug, '>' = one read or none on a drug-free plate. Shares are relative, so most strains fall below 1 when a few take over. Listed are strains with at least 15 reads on both drug-free plates, and hits; most hits rest on fewer reference reads. Replicate rank correlation about 0.5. Edits are read from barcodes. Some results are limits rather than exact numbers.

The target of one data set is Escherichia coli (laboratory strain). The data set can be described thus: barcode share on antibiotic plates over drug-free plates; higher = less susceptible. Conditions: antibiotic: carbenicillin; 2× MIC (3.1 µg/mL). On the procedure:
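A pool of E. coli strains, each edited to carry one amino-acid change in an essential protein, was grown for 48 h on minimal glucose agar with or without antibiotic; strain barcodes were sequenced; mean of two replicates.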
For B1, the “fold change of barcode share” value is 0.369 ± 0.076.
Still for that read-out and setting: to B2 belongs 1.85 ± 1.9; to B3, 0.377 ± 0.11.
With B4, the “fold change of barcode share” value stood at 0.631 ± 0.3.
Take B5: the “fold change of barcode share” value came out at 0.623 ± 0.19.
On the same count and under the same terms, to B6 belongs 0.391 ± 0.057; to B7, 0.308 ± 0.0094; to B8, 0.425 ± 0.13.
On the same count and under the same terms, to B9 belongs 0.398 ± 0.16.
In the case of B10, the “fold change of barcode share” value turned out to be 0.229 ± 0.061.
Still for that read-out and setting: then B11, with 0.122 ± 0.078.
On the same count and under the same terms, then B12, with 0.415 ± 0.035; and B13, with 0.292 ± 0.086; and B14, with 0.284 ± 0.016.

The same data set, now with this note: antibiotic: gentamicin; 2× MIC (MIC 0.45 µg/mL).
For B1, the “fold change of barcode share” value was 0.00986 ± 0.0059.
On to B2, for which the “fold change of barcode share” value is 0.00899 ± 0.0045.
The same measure, in the same setting: then B5, with 0.0163 ± 0.015; and B6, with less than 0.00965.
On the same count and under the same terms, to B7 belongs 0.0107 ± 0.0077; to B8, less than 0.0067.
The same measure, in the same setting: to B9 belongs less than 0.00572; to B10, 0.015 ± 0.015; to B11, less than 0.018.
As to B13, the “fold change of barcode share” value was less than 0.00344.
On the same count and under the same terms, then B14, with less than 0.00447.
